Some of the results follow.

To fix the notation:
B1: PhoQ; a variant is named by its letters at X, in order, P23837 (parent)
chain: MKKLLRLFFPLSLRVRFLLATAAVVLVLSLAYGMVALIGYSVSFDKTTFRLLRGESNLFYTLAKWENNKLHVELPENIDKQSPTMTLIYDENGQLLWAQRDVPWLMKMIQPDWLKSNGFHEIEADVNDTSLLLSGDHSIQQQLQEVREDDDDAEMTHSVAVNVYPATSRMPKLTIVVVDTIPVELKSSYMVWSWFIYVLSANLLLVIPLLWVAAWWSLRPIEALAKEVRELEEHNRELLNPATTRELTSLVRNLNRLLKSERERYDKYRTTLTDLTHSLKTPLXXLQXXLRSLRSEKMSVSDAEPVMLEQISRISQQIGYYLHRASMRGGTLLSRELHPVAPLLDNLTSALNKVYQRKGVNISLDISPEISFVGEQNDFVEVMGNVLDNACKYCLEFVEISARQTDEHLYIVVEDDGPGIPLSKREVIFDRGQRVDTLRPGQGVGLAVAREITEQYEGKIVAGESMLGGARMEVIFGRQHSAPKDE

Variants of B1 are the subject of the assay. The assay is described as follows: enrichment ratio after two sorts for PhoP signalling (ratio (wild type AVST 3.29)); higher = more functional. The note with it: with PhoP (E. coli).
On to MLPT, for which the enrichment ratio is ≤ 0.25. For the variant HELY, the enrichment ratio was ≤ 0.25. Regarding DVVA, the enrichment ratio is ≤ 0.25. For ETSQ the value was ≤ 0.25; for LTDQ, ≤ 0.25. For EARH, the enrichment ratio was ≤ 0.25. For LIAH the value was ≤ 0.25; for QCCV, ≤ 0.25. In the case of SPHQ, the enrichment ratio was ≤ 0.25. Next, IVQK: ≤ 0.25; QKAN: ≤ 0.25; HMWG: ≤ 0.25. For NDYK the value was ≤ 0.25; for TSVG, 2.07; for AKGC, ≤ 0.25. For IMDG the value was ≤ 0.25; for NSPE, ≤ 0.25.

For the variant TCAT, the enrichment ratio was 14.5.

For the variant VVHV, the enrichment ratio is ≤ 0.25. For TFHK the value was ≤ 0.25; for YNRM, ≤ 0.25. For GRVI the value was ≤ 0.25; for SQES, ≤ 0.25. Next, QLCM: ≤ 0.25; MTEG: ≤ 0.25. On to TSPN, for which the enrichment ratio was ≤ 0.25.

Take RHIK: the enrichment ratio is ≤ 0.25. As for LCYA, the enrichment ratio was ≤ 0.25. Next, MVAY: 8.8; IWNM: ≤ 0.25. Next, YHLN: ≤ 0.25; SGFR: ≤ 0.25. For AITI the value was 10.7. Regarding ALLL, the enrichment ratio was determined as 8.77.

With PLST, the enrichment ratio is ≤ 0.25. Next, NKMD: ≤ 0.25. For RISQ, the enrichment ratio is ≤ 0.25. For FRYA the value was ≤ 0.25; for DVPT, ≤ 0.25. Next, FHQM: ≤ 0.25; QAYI: 8.06; MALH: 1.23. Next, SECA: 19.7; ESNP: ≤ 0.25. DTCM: the enrichment ratio was ≤ 0.25.

Turning to EFDD, the enrichment ratio was ≤ 0.25.

Regarding HMMH, the enrichment ratio was ≤ 0.25. For ETCP the value was ≤ 0.25.

On to RWGI, for which the enrichment ratio is ≤ 0.25. For FTFK the value was ≤ 0.25.

For IETF, the enrichment ratio was ≤ 0.25.

As for RYDS, the enrichment ratio was ≤ 0.25. For DWAC the value was ≤ 0.25; for EIDC, ≤ 0.25.

Consider HGIV, for which the enrichment ratio was ≤ 0.25.

For the variant VHQC, the enrichment ratio was ≤ 0.25. Regarding DQKF, the enrichment ratio is ≤ 0.25. Next, HGDA: ≤ 0.25; IIMR: ≤ 0.25; QLMR: ≤ 0.25.

Consider VEKK, for which the enrichment ratio is ≤ 0.25. In the case of NGPK, the enrichment ratio was ≤ 0.25. On to EMCF, for which the enrichment ratio is ≤ 0.25. For LLHH the value was ≤ 0.25; for GVYL, ≤ 0.25; for EYKT, ≤ 0.25. Turning to ELFN, the enrichment ratio turned out to be 0.458. Next, EYWF: ≤ 0.25; GWDP: ≤ 0.25; TRSP: 0.734. For DDDA the value was ≤ 0.25; for KVTQ, ≤ 0.25; for LIYR, ≤ 0.25. With EMGN, the enrichment ratio was ≤ 0.25. Next, KQLW: ≤ 0.25. For AFER the value was ≤ 0.25; for NLNY, ≤ 0.25; for MCDN, ≤ 0.25. For WKVC the value was ≤ 0.25; for NIRK, ≤ 0.25; for VRWV, ≤ 0.25. As for RNRP, the enrichment ratio is ≤ 0.25. For ARDG the value was ≤ 0.25; for NIVW, ≤ 0.25; for YHYR, ≤ 0.25. GLTP: the enrichment ratio is ≤ 0.25. For the variant RYTT, the enrichment ratio was ≤ 0.25. For NMTR the value was ≤ 0.25; for VHPN, ≤ 0.25; for LTLP, ≤ 0.25.

Turning to VWHS, the enrichment ratio is ≤ 0.25. For TGRG the value was ≤ 0.25. As to WFVK, the enrichment ratio is ≤ 0.25.

With RCFV, the enrichment ratio was ≤ 0.25. For WLRP the value was ≤ 0.25. For DIDK the value was ≤ 0.25; for TCSY, 13.3. For WNAM the value was ≤ 0.25; for DLCC, ≤ 0.25. As for GLSE, the enrichment ratio amounted to 5.82. Next, QVCQ: ≤ 0.25. Take DCWD: the enrichment ratio was ≤ 0.25.

Consider NTAY, for which the enrichment ratio is ≤ 0.25. For DMTL the value was ≤ 0.25; for PVAW, ≤ 0.25. Next, DACG: ≤ 0.25.

DIHV: the enrichment ratio was ≤ 0.25. For MSVI the value was 5.83; for DVTD, ≤ 0.25; for FLPD, ≤ 0.25.

As to VVSC, the enrichment ratio was ≤ 0.25. Turning to TCWP, the enrichment ratio was ≤ 0.25. For KECM the value was ≤ 0.25. In the case of FMEH, the enrichment ratio was ≤ 0.25. For VARR the value was ≤ 0.25; for VMNW, ≤ 0.25; for PNCI, ≤ 0.25.

In the case of DALV, the enrichment ratio is ≤ 0.25. On to TNRT, for which the enrichment ratio is ≤ 0.25. ENFP: the enrichment ratio was ≤ 0.25. For KHSK the value was ≤ 0.25; for PMPK, ≤ 0.25; for DFGK, ≤ 0.25. Next, HPPV: ≤ 0.25; FELV: 10.2; SCMQ: 1.51. For the variant RPPF, the enrichment ratio is ≤ 0.25. For TFVP the value was ≤ 0.25; for AATP, ≤ 0.25; for PLKI, ≤ 0.25. Next, HSVF: ≤ 0.25; VAGS: ≤ 0.25; AQTG: 7.06. For WFMV the value was ≤ 0.25; for RPME, ≤ 0.25. For DCYG, the enrichment ratio was ≤ 0.25. Next, ISEP: ≤ 0.25; IDFD: ≤ 0.25; DNSE: ≤ 0.25.

VNLI: the enrichment ratio was 2.16. Consider MKHW, for which the enrichment ratio was ≤ 0.25.

With NLVW, the enrichment ratio is ≤ 0.25. Regarding AWAD, the enrichment ratio is ≤ 0.25.

Take IRKN: the enrichment ratio was ≤ 0.25. For GIMD the value was ≤ 0.25; for HWPA, ≤ 0.25; for LIHA, ≤ 0.25.

As to RTQI, the enrichment ratio was ≤ 0.25. Next, DHTW: ≤ 0.25; KNCD: ≤ 0.25; QSWD: 22.4.

TGWA: the enrichment ratio was 4.94. For LQEL the value was ≤ 0.25. For SRQF the value was ≤ 0.25. Next, HEIK: ≤ 0.25. Turning to HPWN, the enrichment ratio is ≤ 0.25.

Regarding DWAG, the enrichment ratio was ≤ 0.25. For DDTR the value was ≤ 0.25; for MYTL, ≤ 0.25.

Turning to YEER, the enrichment ratio was ≤ 0.25. For KGGP the value was ≤ 0.25; for FTND, ≤ 0.25. For FFNL the value was ≤ 0.25; for TQFR, ≤ 0.25; for PGHP, ≤ 0.25. For RASH the value was ≤ 0.25; for TAAG, 9.44. Turning to RKWF, the enrichment ratio was ≤ 0.25.

For the variant KKYF, the enrichment ratio was ≤ 0.25. With SEPY, the enrichment ratio was ≤ 0.25.

For SVRF, the enrichment ratio amounted to 0.324. Next, HRAD: ≤ 0.25.

Regarding DVDH, the enrichment ratio was ≤ 0.25. Next, WKAF: ≤ 0.25. Next, FLCD: ≤ 0.25; KGPQ: ≤ 0.25. Next, RNFE: ≤ 0.25; PCDD: ≤ 0.25. As to DVEV, the enrichment ratio is ≤ 0.25.

As to WRFW, the enrichment ratio is ≤ 0.25.

Take QEWS: the enrichment ratio was 13.4.

For the variant NNVN, the enrichment ratio is ≤ 0.25. Next, FMAQ: ≤ 0.25. Next, LGSH: ≤ 0.25; QYQW: ≤ 0.25; NNAQ: ≤ 0.25.

As to EPHN, the enrichment ratio is ≤ 0.25. Next, WGAW: ≤ 0.25; IVIM: ≤ 0.25; IMMI: ≤ 0.25. For TMVQ, the enrichment ratio was ≤ 0.25. NRII: the enrichment ratio is ≤ 0.25. Next, FATW: ≤ 0.25. Next, DMCS: ≤ 0.25. For DPPY the value was ≤ 0.25; for NSHD, ≤ 0.25. In the case of LRGS, the enrichment ratio is ≤ 0.25.

As to NMQS, the enrichment ratio was ≤ 0.25. Next, FRFR: ≤ 0.25; SYGN: ≤ 0.25.

Consider YWFI, for which the enrichment ratio is ≤ 0.25. For KIWD the value was ≤ 0.25; for LANC, ≤ 0.25.

As for SMCE, the enrichment ratio came to 11.7. For ERVF the value was ≤ 0.25; for YDPC, ≤ 0.25. For NPQY the value was ≤ 0.25; for GSDA, ≤ 0.25.

Take KTIY: the enrichment ratio is ≤ 0.25. For SHQN the value was ≤ 0.25.

On to EANV, for which the enrichment ratio is ≤ 0.25. Next, NNLN: ≤ 0.25; SRKM: ≤ 0.25. For SYNC the value was ≤ 0.25; for VKPV, ≤ 0.25; for RSGI, ≤ 0.25. As to LWRP, the enrichment ratio is ≤ 0.25. For MHRY the value was ≤ 0.25; for VHSI, ≤ 0.25; for GTCM, 5.28.

With QVMG, the enrichment ratio is ≤ 0.25. As to PKKV, the enrichment ratio was ≤ 0.25. Next, TPTG: ≤ 0.25; EMCP: ≤ 0.25; QYMG: ≤ 0.25.

As for ELQA, the enrichment ratio is ≤ 0.25. HWRR: the enrichment ratio is ≤ 0.25. In the case of LVLL, the enrichment ratio is ≤ 0.25. Consider WEGF, for which the enrichment ratio was ≤ 0.25. For FKNI the value was ≤ 0.25; for PKPH, ≤ 0.25; for LLGR, ≤ 0.25.

For TQCI, the enrichment ratio was determined as 16.

Take YHFD: the enrichment ratio is ≤ 0.25. With KFLL, the enrichment ratio was ≤ 0.25. Next, VNMI: 5.18. Next, KCLS: ≤ 0.25; NVWM: ≤ 0.25; PFGQ: ≤ 0.25. Next, QYCS: ≤ 0.25; KQHY: ≤ 0.25; DIYC: ≤ 0.25. Take WVKL: the enrichment ratio was ≤ 0.25. For NPSR the value was ≤ 0.25; for KACA, ≤ 0.25.

On to KFSI, for which the enrichment ratio is ≤ 0.25. For PDCP the value was ≤ 0.25.

SNPS: the enrichment ratio is ≤ 0.25. Regarding RPCS, the enrichment ratio is ≤ 0.25. Next, RCQD: ≤ 0.25; HQPF: ≤ 0.25; VEQC: 4.21. Next, YTSR: ≤ 0.25; PSMF: ≤ 0.25. Next, HGCW: ≤ 0.25. In the case of QDWC, the enrichment ratio is ≤ 0.25. Next, FKKK: ≤ 0.25; TSQL: 14. For IKAY the value was ≤ 0.25; for FPPE, ≤ 0.25. WDWF: the enrichment ratio is ≤ 0.25. For AWNS the value was ≤ 0.25. For TMKM the value was ≤ 0.25; for YALW, ≤ 0.25; for KHDT, ≤ 0.25. For PMRV the value was ≤ 0.25; for ETDA, ≤ 0.25.

As for DLWN, the enrichment ratio is ≤ 0.25. QNKF: the enrichment ratio was ≤ 0.25. Next, AHMI: ≤ 0.25; ATHN: ≤ 0.25; AMAF: 9.64.

For the variant VGNR, the enrichment ratio was ≤ 0.25. Next, NNYT: ≤ 0.25. On to AIFG, for which the enrichment ratio was ≤ 0.25. Next, GTGK: ≤ 0.25; NQIP: ≤ 0.25. Next, QLAL: 1.62; TEAA: 2.61. Consider WYFQ, for which the enrichment ratio is ≤ 0.25. Next, TKMG: 7.64; YQFK: ≤ 0.25.

For the variant WYGG, the enrichment ratio turned out to be 0.907.

Take DTEM: the enrichment ratio was ≤ 0.25.

Regarding HITG, the enrichment ratio was ≤ 0.25.

Turning to IVTV, the enrichment ratio was ≤ 0.25.

On to YFRK, for which the enrichment ratio was ≤ 0.25. Next, FNSK: ≤ 0.25.

In the case of PRQY, the enrichment ratio is ≤ 0.25. VLYW: the enrichment ratio was ≤ 0.25. For MPYG the value was ≤ 0.25; for MGHN, ≤ 0.25. Next, MELP: ≤ 0.25; PHMV: ≤ 0.25. Next, AFTY: ≤ 0.25; QGDF: ≤ 0.25. As for YVLP, the enrichment ratio was ≤ 0.25. Turning to ARET, the enrichment ratio was ≤ 0.25. For KTCS the value was ≤ 0.25. Next, FTGR: ≤ 0.25. As for TESV, the enrichment ratio worked out at 26.1. On to GQIP, for which the enrichment ratio was ≤ 0.25. For TKHE the value was ≤ 0.25; for TFLK, ≤ 0.25.

On to NEIG, for which the enrichment ratio was ≤ 0.25.

Regarding HAVW, the enrichment ratio was ≤ 0.25.

Source of the values: a collection of fitness landscapes (doi:10.1126/science.1257360).
